Results on 48 molecules are retold here after PubChem BioAssay AID1963576 (National Center for Advancing Translational Sciences (NCATS), 2024).

In all, about 46,000 compounds went through this assay and about 60 (0.1%) were called active. About 3% were inconclusive and are not listed. The call rests on the fitted dose curve; in most records, active means well fitted inhibition curve with a large enough effect; inconclusive means small, poorly fitted or top-dose-only effect; inactive means no such curve, though single readings can be large or run the other way. The list shows a part of the results.

This experiment is described as follows: Primary qHTS assay for Inhibitors of ovarian cancer metastasis using an organotypic tumor microenvironment (TME) model. Further: nearly all actives have a fitted effect of over 65% in size.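 On activity change, negative = inhibition: plate controls were DMSO wells for no effect and tomatine positive control wells for full effect.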 The note with it: SKOV3ip1-GFP adhesion/invasion on 3D omental model, fluorescence; series mostly up to 45.8 µM; activity change, negative = inhibition: at the top concentration. A digest of the protocol:
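Adhesion/invasion was scored as fixed GFP-labeled SKOV3ip1 cell counts (488/509 nm), normalized to DMSO and tomatine controls. Cancer cells in serum-free medium, with four compound doses (0.36-46 umol/L), sat 2 hr at RT then 16 hr at 37 C on a 48 hr fibroblast/mesothelial/ECM culture.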
(Quantitative high-throughput screening tests each substance at several concentrations.)
In the case of `C[C@H]1[C@H](NC(=O)C(=NOC(C)(C)C(=O)O)c2csc(N)n2)C(=O)N1S(=O)(=O)O`, the “activity change, negative = inhibition” value is inactive: 9.91%.
In the case of `COc1cccc(-c2ccnc3c(-c4ccccc4)c(C)nn23)c1`, the “activity change, negative = inhibition” value was inactive: 7.81%.
On the same count and under the same terms, for `CCOC(=O)c1[nH]c2ccccc2c1NC(=O)c1cc(OC)cc(OC)c1` the value was inactive: 0.308%; for `Cc1ccc(CNc2nc3c(c(=O)n(C)c(=O)n3C)n2Cc2ccc(Cl)cc2)cc1`, inactive: 22.3%.
As to `Cc1ccc(CN(C(=O)c2ccc(F)cc2)c2ccccn2)o1`, the “activity change, negative = inhibition” value is inactive: 8.92%.
For the molecule `CCn1c(=O)n(-c2ccc(F)c(Cl)c2)c(=O)c2sc3ccccc3c21`, the “activity change, negative = inhibition” value is inactive: -9.23%.
On to `COC(=O)c1ccccc1NC(=O)COCc1cc(-c2cccs2)on1`, for which the molecule was called inactive.
`CN(C)c1ccc(NC(=O)CSc2nc(-c3ccco3)cc(C(F)(F)F)n2)cc1`: the “activity change, negative = inhibition” value is inactive: 17.2%.
Consider `Cc1ccccc1C(=O)Oc1cc(-c2ccc3c(c2)OCO3)cc(=O)c2c(C)oc(C)c12`, for which the “activity change, negative = inhibition” value is inactive: -5.66%.
With `O=C(COc1ccccc1Cl)N(Cc1ccco1)Cc1ccco1`, the result was inactive.
In the case of `O=C(NCc1ccc(F)cc1)C1CCN(S(=O)(=O)c2ccc3c(c2)CCCN3C(=O)C2CCC2)CC1`, the “activity change, negative = inhibition” value is inactive: 2.14%.
For the molecule `COc1ccc(-n2c(=O)c3c4c(sc3n(CC(=O)N3CCCCC3C)c2=O)CCC4)c(OC)c1` (stereo not drawn), the molecule was called inactive.
Regarding `COc1ccccc1N1CCN(S(=O)(=O)c2c(C)sc3ncn(CC(=O)Nc4ccc(C(C)C)cc4)c(=O)c23)CC1`, the “activity change, negative = inhibition” value is inactive: 0.487%.
Still for that read-out and setting: the same measure for `Cc1ccc(N2CCN(C(=O)c3ccc(Nc4nc5ccccc5n5nnnc45)cc3)CC2)c(C)c1`: inactive: 1.06%; for `CCOc1cc(CNC(=O)c2ccc3c(c2)nc2n3CCCCC2)ccc1OC`: inactive: -1.62%.
For the molecule `Cc1ccc(S(=O)(=O)c2cnc(SCC(=O)Nc3ccccc3C(F)(F)F)[nH]c2=O)cc1C`, the call was inactive.
Take `Cc1ccc(Cl)cc1NC(=O)c1cc2c(=O)n3cccc(C)c3nc2n1C`: the “activity change, negative = inhibition” value was inactive: -6.97%.
For `Cc1cc(C)cc(NC(=O)C2CCCN(c3cnccn3)C2)c1` (stereo not drawn), the outcome was inactive.
Turning to `O=C(NCc1ccc(F)cc1)c1cnc(N2CCOCC2)c2ccccc12`, the “activity change, negative = inhibition” value is inactive: 0.646%.
Turning to `Cc1ccc(C2=NC(c3ccc(F)cc3)=Nc3ccc(C)cc3N2)cc1`, the “activity change, negative = inhibition” value was inactive: 8.5%.
Take `CCSc1nnc2c(n1)OC(c1ccc(OC)cc1OC)N(C(C)=O)c1ccccc1-2` (stereo not drawn): the outcome was inactive.
For the molecule `Cc1cccc(Cn2c(=O)n(CCCCC(=O)NCc3ccc4c(c3)OCO4)c(=O)c3ccccc32)c1`, the “activity change, negative = inhibition” value was inactive: 17%.
For `Cc1ccc(S(=O)(=O)N2CCN(Cc3ccccc3)CC2)c(C)c1NS(C)(=O)=O`, the “activity change, negative = inhibition” value was inactive: 0.594%.
As for `COc1ccc(Cl)cc1NC(=O)CSc1nc2c([nH]c3ccccc32)c(=O)n1-c1ccccc1`, the call was inactive.
As for `O=C(NC1CCCC1)c1cnn(-c2ccc(F)cc2F)c1C1CCNCC1`, the molecule was classed as inactive.
On the same count and under the same terms, for `CN(Cc1ccccc1)Cc1c(O)ccc2c(=O)c(-c3ccccc3)c(C(F)(F)F)oc12` the value was “inactive”; for `CCN(C(=O)c1sc2cc(OC)ccc2c1Cl)c1ccccc1`, “inactive”.
`Cc1ccc(NC(=O)CN2c3ccccc3S(=O)(=O)c3ccccc32)cc1F`: the molecule was classed as inactive.
As to `CCN(CC)CCNC(=O)CN1C(=O)c2cccnc2Oc2ccc(C)cc21`, the molecule was classed as inactive.
For `COc1ccc(CCNC(=O)Cn2c(=O)n(-c3ccc(OC)c(OC)c3)c(=O)c3ccccc32)cc1OC`, the “activity change, negative = inhibition” value was inactive: -1.77%.
Turning to `Cc1ccc(NC(=O)/C(C#N)=C/c2ccccc2Cl)cc1C`, the “activity change, negative = inhibition” value is inactive: -9.4%.
In the case of `COc1ccccc1OCCCCn1c(C2CC(=O)N(c3ccccc3Cl)C2)nc2ccccc21` (stereo not drawn), the “activity change, negative = inhibition” value is inactive: -16.4%.
Consider `CC(=O)c1cccc(NC(=O)c2sc(-n3nc(C)c(CCC(C)C)c3C)nc2C)c1`, for which the “activity change, negative = inhibition” value is inactive: 7.44%.
On to `Cc1nc(-c2ccc(S(=O)(=O)N3CCN(c4cccc(Cl)c4)CC3)cc2)co1`, for which the “activity change, negative = inhibition” value was inactive: -27.4%.
Same read-out and setting: for `COc1cc(NC(=O)Cn2c(=O)n(CC(=O)NCCc3ccc(OC)c(OC)c3)c(=O)c3sccc32)cc(OC)c1` the value was inactive: -8.54%; for `CN(C)c1nc(Cc2ccc(NC(=O)c3ccc4ccccc4c3)cc2)nc(Cl)c1CC(=O)O`, inactive: -21.1%; for `COc1ccc(N2CC(NC(=O)Cc3cccs3)CC2=O)cc1` (stereo not drawn), inactive: -11.9%.
For the molecule `COc1ccc(-n2nnnc2C2CCN(S(=O)(=O)c3ccc(F)cc3Cl)CC2)cc1`, the “activity change, negative = inhibition” value was inactive: -22.6%.
The same measure, in the same setting: the same measure for `COc1cccc(Nc2sc(C(=O)c3ccc4c(c3)OCO4)c(N)c2S(=O)(=O)c2ccccc2)c1`: inactive: -4.22%; for `CSc1ccc(CNC(=O)Cc2csc3ccccc23)cc1`: inactive: 2.05%.
With `CC(=O)NCCNc1nc2c(-c3cccc(C)c3)nnn2c2ccc(Cl)cc12`, the result was inactive.
On to `CC(=O)Nc1ccc(S(=O)(=O)NCC2CCC(C(=O)NCc3ccccc3Cl)CC2)cc1` (stereo not drawn), for which the “activity change, negative = inhibition” value was inactive: 33.4%.
On the same count and under the same terms, for `COc1ccc(C2=NC3(CCCCCC3)N(CC(=O)Nc3ccc(C)c(C)c3)C2=O)cc1` the value was inactive: -8.07%; for `COc1ccc(CNC(=O)CN(c2cc(C(F)(F)F)ccc2Cl)S(C)(=O)=O)cc1`, inactive: 15.2%.
Consider `CCn1c(C)c(C)c2cc(C(=O)NCc3ccc(N(C)C)cc3)ccc21`, for which the “activity change, negative = inhibition” value was inactive: -1.89%.
On the same count and under the same terms, for `Cc1ccc2ncc(S(=O)(=O)c3ccccc3)c(N3CCCCC3C)c2c1` (stereo not drawn) the value was inactive: -4.74%; for `Cc1ccccc1Nc1sc(C(=O)c2ccc(F)cc2)c(N)c1C(=O)NCCc1ccccc1`, inactive: 1.09%; for `COc1ccc(Cl)cc1NC(=O)Cn1ncc2c3ccccc3n(Cc3ccccc3)c2c1=O`, inactive: -5.85%.
